These results are taken from the supplement of paper PMC7266297.

Assay [1] relates to KB-3-1. Put plainly: growth inhibition relative to DMSO control (SRB); cervical cancer cells: KB-3-1 is the parent and KB-V1 overexpresses MDR1; SRB is the sulforhodamine B stain; higher = more growth inhibition. The following applies: 1 µM; 72 h.
Assay [2] has as its system KB-V1. Described as above. The following applies: 1 µM; 72 h.

Counter-ions that a name gives are not always drawn. Some of the results follow. Most values come without repeats; read them as rough.
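Further: Read-out is SRB optical density at 490 nm, with the control being wells given 0.5% DMSO vehicle, and compound added one day after cells were plated.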

In the case of `C[C@H](Cn1cnc2c(N)ncnc21)OCP(=O)(O)O` [Tenofovir], the values for the growth inhibition in assay [1] and in assay [2] were 16.7% and 31.7%, respectively.
For `CCC(=O)Nc1cccc(Oc2nc(Nc3ccc(N4CCN(C)CC4)cc3OC)ncc2Cl)c1`, the growth inhibition in assay [1] and in assay [2] was less than 0% throughout.
Regarding `COc1cc(OC)c(NC(=O)Nc2cc(C)on2)cc1Cl`, the growth inhibition in assay [1] is 21.6%; in assay [2] it was less than 0%.
The corresponding values for `CNC(=C[N+](=O)[O-])NCCSCc1csc(CN(C)C)n1` [Nizatidine] are 45.3% and 25.2%.
In the case of `COc1cc2ncnc(Nc3ccc(F)c(Cl)c3)c2cc1NC(=O)/C=C/CN1CCCCC1`, the growth inhibition was less than 0% in assay [1] and 17.2% in assay [2].
Regarding `Nc1nc(OCc2cc(Br)cs2)c2[nH]cnc2n1` [Lomeguatrib], the growth inhibition turned out to be 41.3% in assay [1] and 8.02% in assay [2].
The like results for `CC[C@H](C)C(=O)O[C@H]1C[C@@H](C)C=C2C=C[C@H](C)[C@H](CC[C@@H]3C[C@@H](O)CC(=O)O3)[C@H]21` [Lovastatin] were, in that order, 20.6% and 22.9%.
For `Cc1ccc(-n2nc(C(C)(C)C)cc2NC(=O)Nc2ccc(OCCN3CCOCC3)c3ccccc23)cc1` [BIRB 796 (Doramapimod)], the results for the growth inhibition in assay [1] and in assay [2] were 21.5% and 10.4%, respectively.
The corresponding values for `CC(C)(C(=O)O)c1ccc(C(O)CCCN2CCC(C(O)(c3ccccc3)c3ccccc3)CC2)cc1` (configuration not stated) [Fexofenadine HCl] are less than 0% and less than 0%.
For `Cc1cc2c(F)c(Oc3ncnn4cc(OC[C@@H](C)O)c(C)c34)ccc2[nH]1`, the growth inhibition in assay [1] was found to be 10.2%; in assay [2], 29.3%.
As to `Fc1ccc(C(c2ccc(F)cc2)N2CCN(C/C=C/c3ccccc3)CC2)cc1` [Flunarizine 2HCl], the results for the growth inhibition in assay [1] and in assay [2] were 45.1% and 15.4%, respectively.
The corresponding values for `CCN(CC)CCOc1ccc(C(=C(Cl)c2ccccc2)c2ccccc2)cc1` [Clomifene citrate] are 37.6% and 16%.
The corresponding values for `Clc1ccc(Nc2nnc(Cc3ccncc3)c3ccccc23)cc1` [Vatalanib (PTK787) 2HCl] are 70.5% and 30.2%.
For `CN(C)CCOc1ccc(-c2nc(-c3ccncc3)c(-c3ccc4c(c3)CC/C4=N\O)[nH]2)cc1`, the growth inhibition in assay [1] and in assay [2] was less than 0% each time.
As to `COc1cc2c(cc1OC)CN(CCc1ccc(NC(=O)c3cc(OC)c(OC)cc3NC(=O)c3cnc4ccccc4c3)cc1)CC2` [Tariquidar], the figures for the growth inhibition in assay [1] and in assay [2] were 43.7% and 24.1%, respectively.
The corresponding values for `COc1cc2nccc(Oc3ccc(NC(=O)NC4CC4)c(Cl)c3)c2cc1C(N)=O` [Lenvatinib (E7080)] are 41.3% and 34%.
The corresponding values for `COc1ccc(-c2cc3c(C)nc(N)nc3n([C@H]3CC[C@H](OCCO)CC3)c2=O)cn1` are 100% and 84.3%.
The corresponding values for `COc1ccc2c(Oc3ccc(NC(=O)c4c(C)n(CC(C)(C)O)n(-c5ccccc5)c4=O)nc3)ccnc2c1` are less than 0% and 1.56%.
For `Cc1nnc(C(C)C)n1C1C[C@H]2CC[C@@H](C1)N2CC[C@H](NC(=O)C1CCC(F)(F)CC1)c1ccccc1` (stereo in doubt) [Maraviroc], the growth inhibition is 46.8% in assay [1] and 20.1% in assay [2].
The like results for `CN1CC(=O)N2[C@H](c3ccc4c(c3)OCO4)c3[nH]c4ccccc4c3C[C@@H]2C1=O` [Tadalafil] were, in that order, 35.1% and 9.61%.
Take `Cc1ccc(N(CC2=NCCN2)c2cccc(O)c2)cc1` [Phentolamine Mesylate]: the figures for the growth inhibition in assay [1] and in assay [2] were 68.1% and 14.5%, respectively.
As to `O=C(/C=C/c1ccc(O)c(O)c1)c1ccc(O)cc1O` [Butein], the figures for the growth inhibition in assay [1] and in assay [2] were 48.8% and less than 0%, respectively.
As to `CCOC(=O)C1=C(C)NC(C)=C(C(=O)OCC)C1c1ccccc1/C=C/C(=O)OC(C)(C)C` [Lacidipine], the growth inhibition amounted to 47.3% in assay [1] and 21.3% in assay [2].
The like results for `CC(C)Cc1ccc(C(C)C(=O)O)cc1` (configuration not stated) [Ibuprofen] were, in that order, 25.3% and 12.8%.
The like results for `O=C(c1ccc(OCCN2CCCCC2)cc1)c1c(-c2ccc(O)cc2)sc2cc(O)ccc12` [Raloxifene HCl] were, in that order, 35.6% and 43.1%.
Take `O=C(c1cncc(Br)c1)N1CCC(N2CCCC2)CC1`: the growth inhibition is 50.2% in assay [1] and less than 0% in assay [2].
The corresponding values for `O=C(NCc1ccccc1)c1csc(Nc2ccncn2)n1` [Thiazovivin] are 17.6% and 46%.
Take `COc1ccc2cc1Oc1ccc(cc1)C[C@H]1c3cc(c(OC)cc3CCN1C)Oc1c(OC)c(OC)cc3c1[C@H](C2)N(C)CC3` [Tetrandrine]: the results for the growth inhibition in assay [1] and in assay [2] were less than 0% and 40.2%, respectively.
The corresponding values for `Cc1cc([C@@H](C)Nc2ccccc2C(=O)O)c2nc(N3CCOCC3)cc(=O)n2c1` are 40.5% and 17.2%.
Consider `CC(C)c1nc(N(C)S(C)(=O)=O)nc(-c2ccc(F)cc2)c1/C=C/[C@@H](O)C[C@@H](O)CC(=O)O` [Rosuvastatin Calcium], for which the growth inhibition is less than 0% in assay [1] and 21.5% in assay [2].
As to `COc1ccc(CC(C)NCC(O)c2ccc(O)c(NC=O)c2)cc1` (configuration not stated) [Formoterol Hemifumarate], the results for the growth inhibition in assay [1] and in assay [2] were 55.9% and 10.3%, respectively.
The like results for `Nc1ccccc1NC(=O)c1ccc(CNC(=O)OCc2cccnc2)cc1` [Entinostat (MS-275)] were, in that order, 40.1% and 36.5%.
On to `Oc1ncnc2[nH]ncc12` [Allopurinol], for which the growth inhibition in assay [1] was 19%; in assay [2], 12.2%.
The like results for `CN1CCN(C2CCN(C(=O)Nc3cc(Oc4ccc(NC(=O)C5(C(=O)Nc6ccc(F)cc6)CC5)c(F)c4)ccn3)CC2)CC1` [Golvatinib (E7050)] were, in that order, 49.2% and 20.7%.
Turning to `COc1cc2ncc(-c3ccccc3)nc2cc1OC` [Tyrphostin AG 1296], the growth inhibition is 44.2% in assay [1] and 11.7% in assay [2].
The like results for `O=C(O)/C=C/c1ccc(Cn2ccnc2)cc1` [Ozagrel] were, in that order, 26.9% and 6.38%.
